Test results from the RNAGym collection of RNA variant scans (doi:10.1073/pnas.2313332121).
Variants at the floor of the assay are shown more often than the library holds them.

B1: TPR 5TU (parent)
chain: GGAUCUUCUCGAUCUAACAAAAAAGACAAAUCUGCCACAAAGCUUGAGAGCAUCUUCGGAUGCAGAGGCGGCAGCCUUCGGUGGCGCGAUAGCGCCAACGUUCUCAACUAUGACACGCAAAACGCGUGCUCCGUUGAAUGGAGUUUAUCAUG

Variants of: B1
Assay: polymerase ribozyme fitness, log enrichment relative to wild type (log ratio); higher = more active; in vitro selection for triplet polymerase activity
Procedure, shortened: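 Fitness compares each genotype's enrichment to that of the wild type on a logarithmic scale, averaging replicates with inverse-variance weights. The logarithm is base 2. Enrichment came from Illumina sequencing of input and output libraries after one triplicate round of in vitro selection, which included frozen incubation at −7 °C, of PCR-built, transcribed mutant libraries of each subunit of a heterodimeric triplet polymerase ribozyme. Only genotypes with ≥10 input reads and ≥1 read per output were kept.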

Polymerase ribozyme fitness (log ratio), -4.13:
GGAUCUUCUCGAUCUAACAAAAAAGACAAAUCUGCCACAAAGCUUGAGAACAUCUUCGGAUGCAGAGGCGGCAGCCUUCGGUGGCGCGAUAGCGCCAACGUUCUCAUCUAUGACACGCAAAACGCGUGCUCCGUUGAAUGGAGUUUAUCAUG [G50A A107U]

Polymerase ribozyme fitness (log ratio), -3.95:
GGAUCUUCUCGAUCUAACAAAAAAGACAAAUCUGCCACAAAGCUUGAGAACAUUUUCGGAUGCAGAGGCGGCAGCCUUCGGUGGUGCGAUAGUUCCAACGUUCUCAACUAUGACACACAAAACGCGUGCUCCGUUGAAUGGAGUUUAUCAUG [G50A C54U C85U C93U G94U G117A]

Polymerase ribozyme fitness (log ratio), -4.01:
GGAUCUUCUCGAUCUAACAAAAAAGACAAAUCUGCCACAAAGCUUGAGAACAUCUUCGGAUGCAGAGGCGGCAGCCUUCGGUGGCGCGAUAGCGCCGACGUUCUCAACUAUGACACGCAAAACGCGUGCUCCGUUGACUGGAGUUUAUCAUG [G50A A97G A138C]

Polymerase ribozyme fitness (log ratio), ≤ -4.2:
GGAUCUUCUCGAUCUAACAAAAAAGACAAAUCUGCCACAAAGCUUGAGUGCAUCUUCGGAUGCAGAGGCGGCAGCCUUCGGUGGCGCGAUAGCCCCAACGUUCUCAACUAUGACACGCAAAACGCGUGCUCCGUUGAAUGGAGUUUAUCAUC [A49U G94C G152C]
GGAUCUUCUCGAUCUAACAAAAAAGACAAAUCUGCCACAAAGCUUGAGUGCAUCUGCGGAUGCAGAGGCGGCAGCCUUCGGUGGUUCGAUAGCGCCAACGUCCUCAACUAUGACACGCAAAACGCGUGCUCCGUUGAAUGGAGUUUAUCAUG [A49U U56G C85U G86U U102C]
GGAUCUUCUCGAUCUAACAAAAAAGACAAAUCUGCCACAAAGCUUGAGUCCAUCUUCGGAUGCACAGGCGGCAGCCUUCGGUGGCGCGAUAGCGCCUACGGUCUCAACUAUGACACGCAAAACGCGUGGUCCGUUGAAUGGAUUUUAUCAUG [A49U G50C G65C A97U U101G C129G G143U]
GGAUCUUCUCGAUCUAACAAAAAAGACAAAUCUGCCACAAAGCUUGAGAACAUUAUCGGAUGCAGAGGCGGCGGCCUUCGGUGGCGCGAUAGCGCCAACGUUCUCAACUAUGACACGCAAAACGCGUGCUCCGUUGAAUGGAGUUUAUCAUG [G50A C54U U55A A73G]
GGAUCUUCUCGAUCUAACAAAAAAGACAAAUCUGCCACAAAGCUUGAGAACAUCUUAGGAUGCAGACGCGGCAGCCUUCGGUGGGGCAAUAGCGCCAACGUUCUCAACUAUGACACGCAAAACGCGUGCUCCGUUGAUUGGAGUUUAUCAUG [G50A C57A G67C C85G G88A A138U]
GGAUCUUCUCGAUCUAACAAAAAAGACAAAUCUGCCACAAAGCUUGAGUGCAUCUUCGGAUGCAGAGGCGGCAGCCUUCGGUGGCGCGAUAGCGCCAACGUUCUCAACUAUGACACGCAAAACGCGUGCUCCGUUGAAUGGAGUUUAUCACG [A49U U151C]
GGAUCUUCUCGAUCUAACAAAAAAGACAAAUCUGCCACAAAGCUUGAGUUCAUCUUCGGAUGCAGAGGUGGAAGCCUUCGGUGGCGCGAUAGCGCAAACGUUAUCAACUAUGACAGGCAAAACGCGUGCUCCGUUGAAUGGAGUUUAUCAUG [A49U G50U C69U C72A C96A C103A C116G]
GGAUCUUCUCGAUCUAACAAAAAAGACAAAUCUGCCACAAAGCUUGAGUGCAUCUUCGGAGGCAGAGGGGGCAGCCUUCGGUGGCGUAAUAGCGCCAACGUUCUCAACUAUGACACGCAAAAUGCGUGCUCCGUUGAAUGGAGUUUAUCAUG [A49U U61G C69G C87U G88A C123U]
GGAUCUUCUCGAUCUAACAAAAAAGACAAAUCUGCCACAAAGCUUGAGUGCAUCUACGGAUGCAGAGGCGGCAGCCUUCGGUGGCGCGAUAGCGCCAAGGUUCUCAACUAUGACACGCAAAACGCGUGCUCCGUUGAAUGGAGUUUGUCAUG [A49U U56A C99G A147G]
GGAUCUUCUCGAUCUAACAAAAAAGACAAAUCUGCCACAAAGCUUGAGAACCUCUUCGGAUGCAGAGGCGGCAGCCUUCGGUGGCGCGAUAGCGACAACGUGCUAAACUAUGACACGCAAAACGCGUGCUCCGUUGAACGGAGUUUAUCAUG [G50A A52C C95A U102G C105A U139C]
GGAUCUUCUCGAUCUAACAAAAAAGACAAAUCUGCCACAAAGCUUGAGUGCAUCUUCGGAAGGAGAGGCGGCAGCAUUCGGUGGCGCGAUAGCGCAAACGUUCUCAACUAUGACACGCAAAACGCGUGCUCCGUUGAAUGAAGUUCAUCAUG [A49U U61A C63G C76A C96A G141A U146C]
GGAUCUUCUCGAUCUAACAAAAAAGACAAAUCUGCCACAAAGCUUGAGAACAUAUUCGAAUGCAGAGGCGGUAGCCUUCGGUGGCGCGAUAGCGCCAACGUUAUCAACUAUGACACGCUAAACGCGUGCUCCGUUGAAUGGAGUUUAUCAUG [G50A C54A G59A C72U C103A A119U]
GGAUCUUCUCGAUCUAACAAAAAAGACAAAUCUGCCACAAAGCUUGAGUGCAUCUUCGGAUGCAGAGCCGGCAGCCUUCGGUGACGCGAUAGCGGCUACUUUCUCAUGUAUGACACGCAAAACGCGUGCUCCGUUGAAUGGAGUUUAGCAUG [A49U G68C G84A C95G A97U G100U A107U C108G U148G]
GGAUCUUCUCGAUCUAACAAAAAAGACAAAUCUGCCACAAAGCUUGAGAAUAUCUUCGGAUGCAGAGGCGGCACCCUUCGGCGGCGCGAUAGCGCCAACGUUCUCAACUAUGACACGCAAAACGCGUGCUCCGUUGAAUAGAGUUGAUCAUG [G50A C51U G74C U82C G140A U146G]
GGAUCUUCUCGAUCUAACAAAAAAGACAAAUCUGCCACAAAGCUUGAGAACAUCUUCGGGUGCAGAGGCGGCAGCCUUCGGUGGCACGAUAGCGCCAACGUUUUCAACUAUGACACGCAAAACGCGUGCUCCGUUGAGUGGAGUUUAUCAUG [G50A A60G G86A C103U A138G]

Polymerase ribozyme fitness (log ratio), -1.41:
GGAUCUUCUCGAUCUAACAAAAAAGACAAAUCUGCCACAAAGCUUGAGAACAUCUUCGGAUGCAGAGGCGGCAGCCUUCGGUGGCGCGAUAGCGCCAACGUUCUCAACUAUGACACGCAAAACGCGUGCUCCGUUGAAUGGAGUUUAUCUUG [G50A A150U]
